# Source: a collection of fitness landscapes (doi:10.1016/j.celrep.2020.107928)
# In all, about 81,000 sequences were measured (“one-hybrid fitness for binding NBS DNA”: median about -0.1, highest 2% from about 0.36 on). This is one part of the list.
# B1: Caulobacter ParB omega fusion; a variant is named by its letters at X, in order, B8GW30 (parent)
# chain: MESVVVGEPGMSEGRRGLGRGLSALLGEVDAAPAQAPGEQLGGSREAPIEILQRNPDQPRRTFREEDLEDLSNSIREKGVLQPILVRPSPDTAGEYQIVAGERAWRAAQRAGLKTVPIMVRELDDLAVLEIGIIENVQRADLNVLEEALSYKVLMEKFERTQENIAQTIGKSXSHVANXMRLLXLPDEVQSYLVSGELTAXHARAIAAAADPVALAKQIIEGGLSVRETEALARKAPNLSAGKSKGGRPPRVKDTDTQALESDLSSVLGLDVSIDHRGSTGTLTITYATLEQLDDLCNRLTRGI
# Variants of: B1
# Experiment: one-hybrid fitness for binding NBS DNA (the Noc-binding site; scaled: cognate 1, non-cognate 0); higher = stronger binding
# Conditions: with NBS DNA site
# Method in brief: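 Caulobacter ParB libraries with four specificity codons randomised were screened by bacterial one-hybrid selection in the E. coli USO strain, using a HIS3 reporter whose site lies 19 bp from the promoter. Selection ran for 48 hours at 37°C on M9 lacking histidine, with 0.1 mM IPTG and 5 mM 3-AT. Plasmids were Illumina-sequenced before and after selection, three replicate libraries were pooled, and variants with under 10 reads were dropped. Fitness is the log change in each variant's read ratio to wild type, rescaled against the cognate and non-cognate sites.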
row,Variant,one-hybrid fitness for binding NBS DNA
1,IEPV,≤ 0.2
2,DFSV,≤ 0.2
3,LNNW,≤ 0.2
4,CLMG,≤ 0.2
5,QVHF,≤ 0.2
6,YNSE,≤ 0.2
7,HMPI,≤ 0.2
8,LLPQ,≤ 0.2
9,NHAA,≤ 0.2
10,EQTR,≤ 0.2
11,PKHS,≤ 0.2
12,LHGM,≤ 0.2
13,MPMF,≤ 0.2
14,RMCP,≤ 0.2
15,DNYE,≤ 0.2
16,QKQR,0.67
17,RICR,0.369
18,CMWS,≤ 0.2
19,TMLT,≤ 0.2
20,EINN,≤ 0.2
21,IKAE,≤ 0.2

row,Variant,one-hybrid fitness for binding NBS DNA
1,MKYV,≤ 0.2
2,THNA,≤ 0.2
3,QQPM,≤ 0.2
4,SVIS,≤ 0.2
5,RTAS,0.454
6,EPNT,≤ 0.2
7,KRHH,0.261
8,KCKF,≤ 0.2
9,KVLT,≤ 0.2
10,MAHS,≤ 0.2
11,ADCG,≤ 0.2
12,ETIS,≤ 0.2
13,SLAA,≤ 0.2
14,MAPC,≤ 0.2
15,GTQG,≤ 0.2
16,HYFC,≤ 0.2
17,YQYK,≤ 0.2
18,QVGY,≤ 0.2
19,HTTD,≤ 0.2
20,AQRW,≤ 0.2
21,GCVW,≤ 0.2

row,Variant,one-hybrid fitness for binding NBS DNA
1,MYCG,≤ 0.2
2,TKLL,≤ 0.2
3,GVIF,≤ 0.2
4,TQQS,≤ 0.2
5,NRNS,≤ 0.2
6,QAWV,≤ 0.2
7,IKKS,≤ 0.2
8,WLPG,≤ 0.2
9,FTTL,≤ 0.2
10,YQAS,≤ 0.2
11,LKIR,≤ 0.2
12,PKQY,≤ 0.2
13,GEAG,≤ 0.2
14,DHPD,≤ 0.2
15,VSKG,≤ 0.2
16,LLNA,≤ 0.2
17,MLGR,≤ 0.2
18,SGPC,≤ 0.2
19,AMVI,≤ 0.2
20,VSQR,≤ 0.2
21,HYVV,≤ 0.2

row,Variant,one-hybrid fitness for binding NBS DNA
1,FTAV,≤ 0.2
2,KIRI,≤ 0.2
3,GRES,≤ 0.2
4,IMAE,≤ 0.2
5,ALMH,≤ 0.2
6,FYEC,≤ 0.2
7,HAKC,≤ 0.2
8,CLDG,≤ 0.2
9,TNFR,≤ 0.2
10,AEYL,≤ 0.2
11,QAHA,0.279
12,PLRT,≤ 0.2
13,YFPR,≤ 0.2
14,GLLM,≤ 0.2
15,CYRS,≤ 0.2
16,NSVT,≤ 0.2
17,NPPG,≤ 0.2
18,RKCS,0.525
19,HATN,≤ 0.2
20,RYDC,≤ 0.2
21,RGVN,≤ 0.2
